Experimental data taken from PubChem BioAssay AID588342 (National Center for Advancing Translational Sciences (NCATS), 2011).
The whole screen tested about 360,000 compounds, of which about 25,000 (6.9%) were called active. The inconclusive results got no clear call from the source; some entries with a clear call stand among them for comparison. The call rests on the fitted dose curve; in most records, active means well fitted inhibition curve with a large enough effect; inconclusive means small, poorly fitted or top-dose-only effect; inactive means flat fitted curve, though single readings scatter. Potencies beside an inconclusive call are fits to weak or partial responses and may not hold up.
Further: nearly all actives have a fitted effect of over 55% in size.
Potency means the concentration at half of the fitted maximal effect; tags describe the fitted curve by direction and shape.
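Wherever activity change, negative = inhibition is given: plate controls were vehicle for no effect and reference inhibitor for full effect.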

The compounds below were run against Luciferin 4-monooxygenase (Photinus pyralis) (UniProt P08659) (assay: qHTS profiling assay for firefly luciferase inhibitor/activator using purifed enzyme and Km concentrations of substrates (counterscreen for miR-21 project)). Conditions: purified FLuc, luminescence inhibition; series mostly up to 57.5 µM; activity change, negative = inhibition: at the top concentration.
Sequence of UniProt P08659 (P08659 whole entry, looked up): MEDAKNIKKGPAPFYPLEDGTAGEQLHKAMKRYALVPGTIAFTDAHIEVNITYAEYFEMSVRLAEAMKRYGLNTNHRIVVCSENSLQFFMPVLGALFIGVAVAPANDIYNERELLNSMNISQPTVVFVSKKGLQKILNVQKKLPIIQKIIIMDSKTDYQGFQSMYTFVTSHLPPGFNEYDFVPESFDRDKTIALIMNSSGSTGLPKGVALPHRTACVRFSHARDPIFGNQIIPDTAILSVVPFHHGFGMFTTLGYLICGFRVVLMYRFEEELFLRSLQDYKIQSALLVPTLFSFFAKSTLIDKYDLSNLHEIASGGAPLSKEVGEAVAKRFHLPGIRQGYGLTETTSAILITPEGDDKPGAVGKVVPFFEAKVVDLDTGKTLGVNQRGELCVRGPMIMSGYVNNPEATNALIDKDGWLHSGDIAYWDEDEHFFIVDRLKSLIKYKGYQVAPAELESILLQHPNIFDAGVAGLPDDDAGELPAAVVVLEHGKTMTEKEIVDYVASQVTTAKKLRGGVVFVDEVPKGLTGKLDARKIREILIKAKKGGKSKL
Method in brief: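 Purified P. pyralis luciferase (10nM final) with 10uM D-luciferin and 10uM ATP (Km levels) in 50mM Tris acetate pH 7.5, 10mM Mg acetate, 0.01% Tween-20, 0.05% BSA; qHTS 6-point titration, ~60 µM downward; luminescence read.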
`CCOc1ccc(/C=N/NC(=O)c2cc3c(OC)cccc3[nH]2)cc1` was tested, and the Potency was inconclusive: 7.57 µM [inhibitor, full curve].
For `COc1ccc(S(=O)(=O)Nc2cc3c(cc2NCc2ccccc2)n(C)c(=O)n3C)cc1OC`, the Potency was inconclusive: 19 µM [inhibitor, partial curve].
With `Cc1ccc(C(=O)COC(=O)c2ccc(-c3cnc4ccccc4n3)cc2)cc1C` the Potency was inconclusive: 42.6 µM [inhibitor, partial curve, poor fit].
With `CC(C)(C)n1ncc2c(=O)n(Cc3cc(F)c(F)cc3Cl)cnc21` the “activity change, negative = inhibition” value was inactive: -0.652%.
`CCOc1ccc(NC(=O)c2ccc(-c3ccccc3)s2)cc1` was tested, and the “activity change, negative = inhibition” value was inactive: -6.79%.
In the case of `COc1ccc2nc(NC(=O)C3CSC4(C)CCC(=O)N34)sc2c1` (centres undefined), the Potency is reported as inconclusive: 21.3 µM [inhibitor, single point].
In the case of `COc1cccc(NC(=O)CN(C)C(=O)c2cc(-c3cccc(Br)c3)nc3ccccc23)c1`, the Potency is reported as inconclusive: 19 µM [inhibitor, partial curve, poor fit].
For `O=C(Oc1ccc(OC(=O)C2CCC2)cc1)C1CCC1`, the Potency was inconclusive: 6.75 µM [inhibitor, single point].
In the case of `O=C(COC(=O)CNC(=O)c1cccc(Br)c1)Nc1nnc(-c2ccccc2)o1`, the Potency is reported as inconclusive: 30.1 µM [inhibitor, single point].
In the case of `Cc1ccc(N2CCN(C(=S)c3ccc(N(C)C)cc3)CC2)cc1`, the Potency is reported as inconclusive: 23.9 µM [inhibitor, single point].
For `CC(=O)Nc1cccc(NC(=O)c2cc(-c3cccnc3)nc3ccc(Cl)cc23)c1`, the Potency was inconclusive: 26.9 µM [inhibitor, single point].
`Cc1cnc(C(=O)Nc2ccc(C(C)C)cc2)cn1` was tested, and the Potency was active: 8.49 µM.
With `Cc1cc(C(=O)COc2cccnc2[N+](=O)[O-])c(C)n1Cc1ccco1` the Potency was inconclusive: 30.1 µM [inhibitor, partial curve, poor fit].
`CCCCN1C(=O)C2(NNc3ccccc3O2)c2ccccc21` (centres undefined) was tested, and the Potency was inconclusive: 30.1 µM [inhibitor, single point].
`c1ccc(-c2ccc(-c3nc(-c4cccnc4)no3)cc2)cc1` was tested, and the Potency was active: 1.35 µM.
`CCCCCOC(=O)c1ccc(NC(=O)c2cccc(NC(=O)c3ccccc3C(=O)O)c2)cc1` was tested, and the Potency was active: 19 µM.
For `NC(=O)Cc1ccc(Nc2nnc(-c3ccc(O)cc3)c3ccccc23)cc1`, the Potency was inconclusive: 26.9 µM [inhibitor, single point].
In the case of `CCn1cc(C(=O)N2CCN(c3cc(C)ccc3C)CC2)c(=O)c2cc(S(=O)(=O)N(C)C3CCCCC3)ccc21`, the Potency is reported as inconclusive: 8.49 µM [inhibitor, partial curve, poor fit].
`COc1ccc(-c2ccc3c(N)c(C(=O)Nc4cc(F)ccc4C)sc3n2)cc1` was tested, and the Potency was inconclusive: 23.9 µM [inhibitor, partial curve, poor fit].
In the case of `O=C(CSc1ncnc2scc(-c3ccccc3)c12)Nc1ccc(C(=O)O)cc1`, the Potency is reported as active: 21.3 µM.
With `Cc1ccc(-c2cc(C(=O)NCCc3ccccc3)c3c(-c4ccc(C)cc4)[nH]nc3n2)cc1` the “activity change, negative = inhibition” value was inactive: -19.4%.
With `CC(=O)c1sc(NC(=O)c2cccnc2Cl)nc1C` the Potency was inconclusive: 37.9 µM [inhibitor, partial curve, poor fit].
With `C/C(=N\NC(=O)c1nn(C)cc1Br)c1cccc(NC(=O)c2ccncc2)c1` the Potency was active: 12 µM.
For `CCc1ccc(NC(=O)Nc2cccc(OC)c2)cc1`, the Potency was active: 2.69 µM.
In the case of `CCCCNC(=O)c1onc(CSc2ccccc2C)c1C(=O)O`, the Potency is reported as inconclusive: 16.9 µM [inhibitor, partial curve, poor fit].
With `COc1cccc(-n2nc(-c3ccnn3-c3ccccc3)c(=O)n(C)c2=O)c1` the “activity change, negative = inhibition” value was inactive: -0.133%.
With `O=S(=O)(c1cccc(-c2nnc(-c3ccc(Br)cc3)o2)c1)N1CCCCCC1` the Potency was inconclusive: 16.9 µM [inhibitor, partial curve].
For `CC1CCN(c2nc(N(C)c3ccccc3)nc(N)c2[N+](=O)[O-])CC1`, the Potency was inconclusive: 37.9 µM [inhibitor, partial curve, poor fit].
In the case of `CC1CC(C)CN(CCCNC(=O)c2ccc3nc(N4CCCCC4)sc3c2)C1` (centres undefined), the “activity change, negative = inhibition” value is reported as inactive: -11.9%.
With `CCOc1ccc(N2C(=O)N(Cc3ccc(C)cc3C)c3ccccc3S2(=O)=O)cc1` the “activity change, negative = inhibition” value was inactive: -2.61%.
For `CCOc1cc(C(=O)Nc2ccc3c4c(cccc24)C(=O)N3CC)cc(OCC)c1OCC`, the “activity change, negative = inhibition” value was inactive: 0.399%.
In the case of `CC(C)CNS(=O)(=O)c1ccc(C(=O)Nc2ccc3c(c2)OCO3)cc1`, the “activity change, negative = inhibition” value is reported as inactive: 0.691%.
`Cc1cccc(C)c1-n1cccc1/C=C1\SC(=S)N(c2cccc(C(=O)O)c2)C1=O` was tested, and the Potency was inconclusive: 23.9 µM [inhibitor, single point].
For `Cn1c(CNc2nc3ccccc3n2C)nc2ccccc21`, the Potency was inconclusive: 23.9 µM [inhibitor, single point].
With `CCN(C(=O)CSc1nnc(NCc2ccccc2)s1)C1CCS(=O)(=O)C1` (centres undefined) the Potency was inconclusive: 21.3 µM [inhibitor, partial curve].
`CCOc1ccc(C(=O)N2CCCCC2CCN2CCOCC2)cc1` (centres undefined) was tested, and the “activity change, negative = inhibition” value was inactive: -5.33%.
With `CC(/C=N/NC(=O)c1ccccn1)=C\c1ccco1` the Potency was active: 3.79 µM.
With `CNC(=S)N1N=C(c2ccc(C)cc2)CC1c1ccc(N(C)C)cc1` (centres undefined) the Potency was inconclusive: 23.9 µM [inhibitor, partial curve, poor fit].
For `FC(F)Sc1ccc(NC(=S)NC2CCCC2)cc1`, the Potency was active: 13.5 µM.
With `O=C(NNC(=O)c1ccccc1Cl)c1ccco1` the Potency was inconclusive: 26.9 µM [inhibitor, single point].
With `Cc1cc(C)n(-c2nc3ccccc3nc2Nc2cc(C(=O)O)ccc2C)n1` the Potency was inconclusive: 10.7 µM [inhibitor, partial curve].
For `Cc1cc(C)cc(-n2nnc(-c3nc(-c4ccccc4F)no3)c2C)c1`, the Potency was inconclusive: 13.5 µM [inhibitor, partial curve].
`Nc1[nH]c(=O)[nH]c(=O)c1N=Nc1ccccc1Cl` was tested, and the Potency was inconclusive: 37.9 µM [inhibitor, single point].
`O=C(Nc1ccc2c(c1)OCO2)C1CCN(C(=O)CSc2ncnc3ccccc23)CC1` was tested, and the Potency was inconclusive: 30.1 µM [inhibitor, partial curve, poor fit].
For `Cc1ccc(CN2CCN(CC(=O)NCc3ccccc3Cl)C2=O)cc1`, the “activity change, negative = inhibition” value was inactive: 0.466%.
With `COc1ccc(CNC(=O)c2ccc3c(c2)nc2n3CCCCC2)c(OC)c1` the Potency was inconclusive: 23.9 µM [inhibitor, partial curve].
For `CCN(CC)CCNC(=O)c1ccc(NC(=O)c2ccc(COc3ccccc3)cc2)cc1`, the Potency was inconclusive: 1.51 µM [inhibitor, full curve].
`Clc1ccc(-n2ncc3c(NCc4ccc5c(c4)OCO5)ncnc32)cc1` was tested, and the Potency was inconclusive: 26.9 µM [inhibitor, single point].
For `COc1ccc(/C=C/c2noc(-c3ccccc3O)n2)cc1OC`, the Potency was inconclusive: 1.51 µM [inhibitor, partial curve].
`Cc1cc(C(=O)NCCc2ccccc2)ccc1[N+](=O)[O-]` was tested, and the Potency was active: 13.5 µM.
For `COc1ccc(C(=O)NCCN2C(=O)S/C(=C\c3cccnc3)C2=O)cc1[N+](=O)[O-]`, the Potency was inconclusive: 37.9 µM [inhibitor, partial curve, poor fit].
In the case of `O=c1[nH]c2ccccc2[n+]([O-])c1-c1ccccc1`, the Potency is reported as inconclusive: 21.3 µM [inhibitor, partial curve, poor fit].
`Cc1ccc(-c2ccc(/C=N/O)o2)cc1[N+](=O)[O-]` was tested, and the Potency was inconclusive: 30.1 µM [inhibitor, single point].
In the case of `CC1=C(C(=O)O)N2C(=O)C(NC(=O)c3ccccc3Cl)C2SC1` (centres undefined), the Potency is reported as inconclusive: 21.3 µM [inhibitor, single point].
`COC(=O)N/N=C/c1cn(CCOc2ccc(OC)cc2)c2ccccc12` was tested, and the Potency was inconclusive: 37.9 µM [inhibitor, partial curve, poor fit].
For `COc1cc(C2c3c(oc4ccccc4c3=O)C(=O)N2c2nnc(C(C)C)s2)cc(OC)c1OC` (centres undefined), the “activity change, negative = inhibition” value was inactive: -1.08%.
For `Cc1ccc2c(c1)C(c1ccc(F)cc1)N(C(=O)c1ccccc1Br)CC(=O)N2` (centres undefined), the “activity change, negative = inhibition” value was inactive: -0.975%.
With `O=C(c1ccccc1F)N1CCN(c2cnn(-c3cccc(Cl)c3)c(=O)c2Cl)CC1` the “activity change, negative = inhibition” value was inactive: 1.23%.
`CCOc1ccc(C(C(=O)NC2CCCC2)N(C(=O)c2snc(C(N)=O)c2N)c2cccc(O)c2)cc1` (centres undefined) was tested, and the “activity change, negative = inhibition” value was inactive: -1.84%.
`Cc1nn(-c2ccc(N3CCCCC3)nn2)c(C)c1CCC(=O)NCc1ccccc1F` was tested, and the Potency was inconclusive: 26.9 µM [inhibitor, partial curve, poor fit].
In the case of `COc1ccc(NC(=O)COCc2cc(-c3cccs3)on2)cc1`, the “activity change, negative = inhibition” value is reported as inactive: -14.2%.
For `Cc1ccccc1C1C=C(c2ccc(Cl)cc2)Nc2nnnn21` (centres undefined), the “activity change, negative = inhibition” value was inactive: -2.2%.
In the case of `Cc1ccc(C)c(OCCn2cc(C(=O)O)c3ccccc32)c1`, the Potency is reported as inconclusive: 37.9 µM [inhibitor, single point].
In the case of `Clc1ccc(OCc2cc(-c3ccccc3)no2)c(Cl)c1`, the Potency is reported as active: 0.379 µM.
`Cc1ccc(N2C(=O)C(Cl)=C(NCCO)C2=O)c(C)c1` was tested, and the Potency was inconclusive: 37.9 µM [inhibitor, partial curve, poor fit].
With `CN(C)S(=O)(=O)c1cccc(C(=O)OCC(=O)Nc2sccc2C#N)c1` the Potency was inconclusive: 26.9 µM [inhibitor, single point].
In the case of `O=C(CCS(=O)(=O)c1ccc(Cl)cc1)Nc1nc(-c2cccnc2)cs1`, the “activity change, negative = inhibition” value is reported as inactive: 5.21%.
In the case of `Cc1ccc(-c2csc(NC(=O)c3ccccc3Cl)c2C(=O)O)cc1`, the Potency is reported as active: 26.9 µM.
In the case of `O=C(NCc1ccccc1Cl)c1ccc2c(c1)OCO2`, the Potency is reported as inconclusive: 30.1 µM [inhibitor, partial curve, poor fit].
